tested on: S. pneumoniae D39V; format: in vivo; details: waterborne, 1× to 400× in vitro MIC, survival 24 hpt

| Compound | Survival of S. pneumoniae-infected embryos |
| --- | --- |
| penicillin | dose-dependent survival |
| C[C@H]1COc2c(N3CCN(C)CC3)c(F)cc3c(=O)c(C(=O)O)cn1c23 [levofloxacin] | dose-dependent survival |
| CO/N=C(\C(=O)N[C@@H]1C(=O)N2C(C(=O)O)=C(CSc3nc(=O)c(=O)[nH]n3C)CS[C@H]12)c1csc(N)n1 [ceftriaxone] | did not increase the survival |
| C[C@@H](O)[C@H]1C(=O)N2C(C(=O)O)=C(S[C@@H]3CN[C@H](C(=O)N(C)C)C3)[C@H](C)[C@H]12 [meropenem] | did not increase the survival |
| CC(C)(O/N=C(\C(=O)N[C@@H]1C(=O)N2C(C(=O)[O-])=C(C[n+]3ccccc3)CS[C@H]12)c1csc(N)n1)C(=O)O [ceftazidime] | did not increase the survival |
| Nc1nc(/C(=C/CC(=O)O)C(=O)N[C@@H]2C(=O)N3C(C(=O)O)=CCS[C@H]23)cs1 [ceftibuten] | dose-dependent survival |
| C=CC1=C(C(=O)O)N2C(=O)[C@@H](NC(=O)/C(=N\OCC(=O)O)c3csc(N)n3)[C@H]2SC1 [cefixime] | dose-dependent survival |

— PMC8713996, “An anti-tuberculosis compound screen using a zebrafish infection model identifies an aspartyl-tRNA synthetase inhibitor” (Disease Models & Mechanisms, 2021)
